From the supplement of paper PMC8183993
Where “and” joins values, the source holds several entries; their conditions need not be identical. Equal values may be shown once. Where a name gives a salt, the structure may show the parent alone. ± gives the standard deviation of the averaged measurements. In all, about 3,100 compounds were measured (“mean cytoplasmic OPP incorporation (global translation) relative to DMSO”: median about 100, lowest 2% from about 56 on). The list shows a part of the results.

The compounds below were run on U2OS (assay: mean cytoplasmic OPP incorporation (global translation) relative to DMSO (% of DMSO); higher = more protein synthesis). Details: 10 µM; 24 h.
Protocol: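 Primary image-based screen in U2OS cells: compounds at 10 uM for 24 h, then a 1 h o-propargyl-puromycin (OPP) pulse, click labelling, and high-throughput microscopy. Mean cytoplasmic OPP intensity and nuclei count were normalised to DMSO wells within each plate (DMSO = 100) and averaged over triplicate plates.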

SMILES	mean cytoplasmic OPP incorporation
Nc1ccn([C@@H]2O[C@H](CO)[C@@H](O)C2(F)F)c(=O)n1 [Gemcitabine]	71.7
Nc1ccn([C@@H]2O[C@H](CO)[C@@H](O)C2(F)F)c(=O)n1 [Gemcitabine HCl (Gemzar)]	72.9
O=C(NCCCN1CCC2(CC1)OCc1ccccc12)[C@H]1CCCN1Cc1ccccc1	108
COc1ccccc1N1CCN(CCN(C(=O)C2CCCCC2)c2ccccn2)CC1	118
CN1C(=O)CC(c2ccccc2)C1=O (configuration not stated) [Phensuximide]	105
CN(C)CCN(Cc1ccccc1)c1ccccn1 [Tripelennamine hydrochloride]	99.5
CC1CNc2c(cccc2S(=O)(=O)N[C@@H](CCCNC(=N)N)C(=O)N2CC[C@@H](C)C[C@@H]2C(=O)O)C1 (some centres not stated) [Argatroban]	100 ± 6.7
CO[C@H]1C[C@@H]2CC[C@@H](C)[C@@](O)(O2)C(=O)C(=O)N2CCCC[C@H]2C(=O)O[C@H]([C@H](C)C[C@@H]2CC[C@@H](OCCO)[C@H](OC)C2)CC(=O)[C@H](C)/C=C(\C)[C@@H](O)[C@@H](OC)C(=O)[C@H](C)C[C@H](C)/C=C/C=C/C=C/1C [Everolimus (RAD001)]	94.16 ± 0.21
Fc1ccc(Cl)cc1-c1nc(Nc2ccncc2)c2nccnc2n1	99.7
O=C(O)c1ccc(-c2ccc3cc(O)c(C45CC6CC(CC(C6)C4)C5)cc3c2)cc1	98.8
Cc1c(C2CCN(CCc3ccccc3)CC2)noc1-c1ccc(Cl)cc1 [L-741,742 hydrochloride]	123
CC(C)c1ccc(NC(=O)Cn2cnc3c2c(=O)n(C)c(=O)n3C)cc1	102
C[C@H](NC(=O)/C(C#N)=C/c1cccc(Br)n1)c1ccccc1	56.2 ± 5.9
CCCN(CCC)S(=O)(=O)c1ccc(C(=O)O)cc1 [Probenecid]	98.7
CCNC(=O)Nc1ccc(-c2nc3c(c(N4CCOC[C@@H]4C)n2)CCN(C2COC2)C3)cc1	63.5 ± 2.8
C[C@]12CC[C@@H]3c4ccc(O)cc4CC[C@H]3[C@@H]1CC[C@@H]2O [Estradiol-17 beta]	101
C[C@]12CC[C@@H]3c4ccc(O)cc4CC[C@H]3[C@@H]1CC[C@@H]2O [Estradiol]	100
C[C@]12CC[C@@H]3c4ccc(O)cc4CC[C@H]3[C@@H]1CC[C@@H]2O [17b-Estradiol]	95.7
Cc1c(NC(=O)N2CCOCC2)ccc2c1c1ccccc1n2C(C)C	101
NC(Cc1cc(I)c(Oc2cc(I)c(O)c(I)c2)c(I)c1)C(=O)O (configuration not stated) [Thyroxine (L)]	106
OC(CN1CCC(Cc2ccc(F)cc2)CC1)c1ccc(Cl)cc1 (configuration not stated) [Eliprodil]	97.1
CN(C)CC/C=C1/c2ccccc2Sc2ccc(Cl)cc21 [Chlorprothixene hydrochloride]	110
CCCS(=O)(=O)c1nc(NC2CC2)cc(-c2ccc3c(ccn3C3CC(C)(C)NC(C)(C)C3)c2)n1	21.1
CC(=O)[C@H]1CC[C@H]2[C@@H]3CCC4=CC(=O)CC[C@]4(C)[C@H]3CC[C@]12C [Progesterone (Prometrium)]	106

SMILES	mean cytoplasmic OPP incorporation
CC(=O)[C@H]1CC[C@H]2[C@@H]3CCC4=CC(=O)CC[C@]4(C)[C@H]3CC[C@]12C [Progesterone]	95.1 ± 0.97
Cn1cc(CNCC2CCN(c3ncc(C(=O)NO)cn3)CC2)c2ccccc21	59.7
CCOC(=O)CCNc1cc(N2CCc3ccccc3CC2)nc(-c2ccccn2)n1	95.7 and 90.7
COc1ccc2[nH]c([S+]([O-])Cc3ncc(C)c(OC)c3C)nc2n1 (configuration not stated) [Tenatoprazole]	109
CN(C)CCOC(c1ccccc1)c1ccccc1 [Diphenhydramine hydrochloride]	106
N#Cc1ccc(C2CCCc3cncn32)cc1 (configuration not stated) [Fadrozole hydrochloride]	99
COC(=O)C1=CO[C@@H](O[C@@H]2O[C@H](CO)[C@@H](O)[C@H](O)[C@H]2O)[C@@H]2C(CO)=CC[C@H]12 [Geniposide]	102
Cc1onc(-c2ccccc2Cl)c1C(=O)N[C@@H]1C(=O)N2[C@@H]1SC(C)(C)[C@@H]2C(=O)O [Cloxacillin sodium salt]	89.9
Cc1onc(-c2ccccc2Cl)c1C(=O)N[C@@H]1C(=O)N2[C@@H]1SC(C)(C)[C@@H]2C(=O)O [Cloxacillin sodium (Cloxacap)]	102
N[C@@H](C(=O)N[C@@H]1C(=O)N2C(C(=O)O)=C(Cl)CC[C@H]12)c1ccccc1 [Loracarbef]	97.4
COc1ccc(Cn2ccc3ccc(C(=O)NO)cc32)cc1	123
C#Cc1cccc(Nc2ncnc3cc(OCCOC)c(OCCOC)cc23)c1 [Erlotinib]	91.9
NC(=O)c1cnc(N[C@@H]2CCCC[C@@H]2N)nc1Nc1cccc(-n2nccn2)c1	77.5 ± 3.4
NS(=O)(=O)c1cc2c(cc1Cl)NC(C(Cl)Cl)NS2(=O)=O (configuration not stated) [Trichlormethiazide]	92.1
CN[C@@H]1[C@H](O)[C@H](NC)[C@H]2O[C@@]3(O)C(=O)C[C@@H](C)O[C@H]3O[C@@H]2[C@H]1O [Spectinomycin dihydrochloride]	94.4
CCCCCCOC(=O)NC(=N)c1ccc(NCc2nc3cc(C(=O)N(CCC(=O)OCC)c4ccccn4)ccc3n2C)cc1 [BIBR-1048 (Dabigatran etexilate, Pradaxa)]	109
CC(C)C[C@@H](C(=O)N[C@H](C(=O)OC1CCCC1)c1ccccc1)[C@H](O)C(=O)NO	97.6
CC(C)C[C@@H](C(=O)N[C@H](C(=O)OC1CCCC1)c1ccccc1)[C@H](O)C(=O)NO [Tosedostat (CHR2797)]	103
COc1ccc(O)cc1 [Mequinol]	101
CCCCCCCCCCCCCCCCCCCCCCO [Docosanol (Abreva)]	104
O=[N+]([O-])c1ccc(Oc2ccc(Br)cc2)c(C(O)P(=O)(O)O)c1 (configuration not stated)	95.9
Cc1c(-c2ccccc2)oc2c(C(=O)OCCN3CCCCC3)cccc2c1=O [Flavoxate hydrochloride]	94.6
CN[C@@H]1[C@@H](O[C@H]2O[C@H](CO)[C@@H](N)[C@H](O)[C@H]2O)OC2C[C@@H](N)[C@@H](O[C@H]3[C@H](O)[C@@H](O)[C@H](N)C[C@@H]3N)OC2[C@@H]1O (some centres not stated) [Apramycin]	105
CCN(CC)CCOC(=O)c1cc(Cl)c(N)cc1OC [SDZ 205-557 hydrochloride]	98.4

SMILES	mean cytoplasmic OPP incorporation
C=C1/C(=C\C=C2/CCC[C@]3(C)[C@@H]([C@H](C)CCCC(C)C)CC[C@@H]23)C[C@@H](O)C[C@@H]1O [Alfacalcidol]	93.9
Cc1ccc2c(c1)c1c3n2CCNC3CCC1 (configuration not stated) [Pirlindole mesylate]	108 ± 3.8
CC(=O)N[C@@H](Cc1c[nH]c2ccccc12)C(=O)OCc1cc(C(F)(F)F)cc(C(F)(F)F)c1	100
CCC[C@@H]1C[C@@H](C(=O)N[C@@H]([C@H]2O[C@H](SC)[C@H](O)[C@@H](O)[C@H]2O)[C@H](C)Cl)N(C)C1 [Clindamycin HCl (Dalacin)]	105
CCC[C@@H]1C[C@@H](C(=O)N[C@@H]([C@H]2O[C@H](SC)[C@H](O)[C@@H](O)[C@H]2O)[C@H](C)Cl)N(C)C1 [Clindamycin hydrochloride]	104
CO[C@H]1/C=C\C=C(/C)C(=O)NC2=CC(=O)C(NCCN(C)C)=C(C[C@@H](C)C[C@H](OC)[C@H](O)[C@@H](C)/C=C(\C)[C@@H]1OC(N)=O)C2=O [17-DMAG HCl (Alvespimycin)]	73.7
O=C(N[C@H](CO)[C@H](O)c1ccc([N+](=O)[O-])cc1)C(Cl)Cl [Chloramphenicol]	101
Cn1cnc2c1c(=O)[nH]c(=O)n2C [Theobromine]	105
CC1=NN(c2ccccc2)C(=O)C1	99.9 ± 2.1
CCN(CC)CCNC(=O)c1cc(Cl)c(N)cc1OC [Metoclopramide monohydrochloride]	104
CCOc1ccc2ccccc2c1C(=O)N[C@@H]1C(=O)N2[C@@H]1SC(C)(C)[C@@H]2C(=O)O [Nafcillin sodium salt monohydrate]	103
CN(C)C/C=C(/c1ccc(Br)cc1)c1cccnc1 [Zimelidine dihydrochloride monohydrate]	93.4
CN(C)C/C=C(/c1ccc(Br)cc1)c1cccnc1 [Zimelidine dihydrochloride]	98.4
CC(C)(CO)C(O)C(=O)NCCCO (configuration not stated) [Panthenol (D)]	101
COc1cc2c(Oc3ccc(NC(=O)C4(C(=O)Nc5ccc(F)cc5)CC4)cc3F)ccnc2cc1OCCCN1CCOCC1	92.5
CC1=CC(=O)C(C(C)C)=CC1=O [Thymoquinone]	94
O=C(/C=C/c1ccc(O)cc1)CC(=O)/C=C/c1ccc(O)cc1 [bis-demethoxycurcumin]	121
C[S+]([O-])c1ccc(-c2nc(-c3ccc(F)cc3)c(-c3ccncc3)[nH]2)cc1 (configuration not stated)	100 and 96.3
COc1ccccc1Oc1c(NS(=O)(=O)c2ccc(C(C)(C)C)cc2)nc(-c2ncccn2)nc1OCCO [Bosentan]	115
Nc1ccccc1S(N)(=O)=O [2-Aminobenzenesulfonamide]	107
CN(C)CCC=C1c2ccccc2COc2ccccc21 [Doxepin hydrochloride]	90.4 ± 1.3
CN1CCC[C@@H]1Cc1c[nH]c2ccc(CCS(=O)(=O)c3ccccc3)cc12 [Eletriptan hydrobromide]	109
CC(C)[N+](C)(CCOC(=O)C1c2ccccc2Oc2ccccc21)C(C)C [Propantheline bromide]	105
COc1ccc(NS(=O)(=O)c2sc3ccc(Cl)cc3c2C)cc1N1CCNCC1	106
